# Results reported in ChEMBL document CHEMBL4888484, “Replenishing the malaria drug discovery pipeline: Screening and hit evaluation of the MMV Hit Generation Library 1 (HGL1) against asexual blood stage Plasmodium falciparum ,using a nano luciferase reporter read-out” (2022).
# The campaign covered roughly 150,000 compounds. About 540 (0.36%) showed an effect of 50% or more. This is one part of the list.
# System: Plasmodium falciparum
# Test: Primary screen in NF54 nanoGlo assay, in single point, at 2uM, 72h; a lower Z score goes with more inhibition
# Type: functional, Erythrocyte
# Settings: timepoint 72 hour
SMILES,% Inhibition [%],Z score
O=C(NC1CC1)c1ccoc1C(F)(F)F,8,-0.98
COC1(c2noc(CCc3cncnc3)n2)CCC1,2,-0.26
CC(=O)Nc1ccc2cc(S(=O)(=O)N3CCn4c(nc5ccccc54)C3)cc(S(=O)(=O)c3ccccc3)c2c1,-10,1.21
CC(=O)Nc1nonc1-n1c(C)ccc1C,-13,1.94
CCN(CC)C(=O)CN[C@@H](Cc1ccc(F)cc1)C(C)C,-4,0.66
Cc1ccc(NC(=O)N(Cc2ccco2)C2CC2)cc1Cl,-11,1.04
Cc1cc(CN2C(=O)NC3(CCCCCCC3)C2=O)no1,-6,0.55
O=C(c1ncoc1C1CCCO1)N1CC2CCCC2C1 (stereo not drawn),-4,0.55
COCC1(CNC(=O)N2CC[C@H](N3CCCS3(=O)=O)C2)CCC1,6,-1.23
CCn1c(-c2cc(NC(=O)c3ccc(C)cc3C)[nH]n2)c(C)c2ccccc21,-16,1.76
Clc1ccc2c(Oc3ccc(-n4cccn4)cc3)ncnc2c1,11,-1.27
COc1cc(C(=O)O)cc(C(=O)NC[C@@H](c2cccnc2)N2CCCCC2)c1,-3,0.44
Cc1ccc2nc3c(cc2c1)CCN3C(=O)c1ccc(F)cc1,-9,0.99
CC[C@H](C)CN(C)c1ccc(F)cc1CNCCOCCN(C)C,5,-0.98
CCCN(CCC)c1nc(C)nc2c1sc(=S)n2C,0,0.06
Cn1cc(CNc2cccc(S(=O)(=O)N3CCC(O)CC3)c2)nn1,-7,1.58
O=C(NCC1CC2CCC1C2)N1CCOC(Cn2cccn2)C1 (stereo not drawn),32,-4.62
O=S(=O)(NCc1ccnc(-c2cccnc2)c1)c1ccc(F)c(-c2nnn[nH]2)c1,-6,1.08
Cc1noc(C)c1C(C)CC(=O)N1CC(C)Oc2ncccc21 (stereo not drawn),-1,0.12
COc1cccc2sc(OC3CN(C(=O)CCc4c(C)noc4C)C3)nc12,-5,0.54
COc1ccc(CCCN2Cc3cc(OC)c(OC)cc3C3(CCCCC3)C2)cc1OC,-9,1.18
Cn1cc(C(=O)NC[C@@H](c2ccsc2)N2CCC2)nn1,-8,1.32
CCC1CC(NC(=O)N2CCCC(c3ccc(F)c(F)c3)C2)CCO1 (stereo not drawn),-3,0.37
C[C@H]1CCCN(C(=O)C(=O)Nc2cc(C(F)(F)F)c[nH]c2=O)C1,-6,1.15
CC[C@H](C)Oc1cccc(NC(=O)CC(C)(C)C(=O)O)c1,5,-0.76
O=C(NC1CCOCC1)N[C@H]1CCN(Cc2ccsc2)C1,-12,1.83
CCN(C[C@H]1CCCCO1)C(=O)c1ccc(-c2cc(O)nc(N)n2)cc1,-12,2.19

SMILES,% Inhibition [%],Z score
O=C(COc1ccc(Cl)cc1)NCc1ccccc1CN1CCOCC1,-12,1.41
C[C@H]1Cc2ccccc2N1C(=O)Cn1nc(-n2cccn2)ccc1=O,-2,0.41
NC(=O)c1ccc(NCCOc2cccc(Cl)c2Cl)nn1,-9,1.2
O=C1O[C@H](C(=O)Nc2ccccc2-n2ccnn2)Cc2ccccc21,-11,1.13
N#Cc1c(NC(=O)Cn2nc3cnccn3c2=O)sc2c1CCCCC2,1,-0.06
CCN(Cc1noc(C)n1)Cc1cc2cc(OC)ccc2[nH]c1=O,1,-0.14
CC1=C[C@@H](CNC(=O)CC2(CC(=O)O)CCCC2)[C@H](C(C)C)C[C@H]1Cc1nc2ccccc2n1C,23,-2.59
CC(=O)N(CCC(=O)N(C1CC1)[C@@H](C)C1CC1)Cc1ccccc1,-11,2.14
CN(Cc1cccn1C)S(=O)(=O)Cc1ccc(F)c(Cl)c1,2,-0.38
Nc1c(NC(C2CC2)C2CC2)ncnc1-n1cccn1,-48,5.6
O=S1(=O)CC(O)C(N2CCCC3(CCCCCC3)C2)C1 (stereo not drawn),-2,0.2
c1ccc(CN=C(NCCN2CCOCC2)NCC2CC2)cc1,-13,1.81
COCCN1C[C@]2(CCCN(c3nccc(N)n3)C2)CCC1=O,8,-0.88
Cc1nonc1OCCN1C[C@@](C)(c2ccccc2)CCC1=O,12,-1.58
Cc1[nH]c(C)c(S(=O)(=O)NCc2ccccc2)c1-c1nc(C2CC2)no1,-8,1.64
CCc1ccc(NC(=O)c2ccc(N3CC(C)CC(C)C3)c(NS(=O)(=O)c3cc(OC)ccc3OC)c2)cc1 (stereo not drawn),-4,0.55
Cc1ccccc1OC[C@H](O)C(=O)NCC1(CN2CCN(C)CC2)CC1,-16,2.39
CC(C)(C)NC(=O)NC(=O)CNC1(C(=O)OC(C)(C)C)CCCC1,-10,1.38
Cc1ccc([C@H](C)NC(=O)N2CCC3(CCCCCC3)C2)cn1,-3,0.35
C=CCN(CC=C)CCOc1ccccc1,4,-0.53
COc1ccc([C@@H]2CCCN2C(=O)c2ccc(=O)[nH]n2)cc1OC,-16,1.41
O=C(c1nccc2ccccc12)N1CCO[C@H](c2ccccc2)C1,-7,0.68
Cc1cc(C)nc(N2CCCC(C(=O)N[C@H](CC(C)C)c3nnc4ccccn34)C2)n1 (stereo partly drawn),8,-1.1
CC[C@H](C)NC(=O)CN1CN(c2ccccc2)C2(CCN(C(=O)Nc3ccccc3C)CC2)C1=O,-7,1.3
O=C(NC[C@H]1COCCO1)NC1(CO)CCC1,-9,1.59
COc1ccccc1C1CN(C(=O)c2ccccc2F)CC1C(=O)NC1CC1 (stereo not drawn),-12,1.78
CC(=O)Nc1ccc(-c2cc(-c3ccc(NC(C)=O)cc3)nc(-c3ccc(Br)cc3)n2)cc1,1,-0.14
